# Assay results reported in PubChem BioAssay AID624417 (National Center for Advancing Translational Sciences (NCATS), 2012).
# Screen size: about 410,000 compounds; about 6,400 (1.6%) were called active. The shares of active, inactive and inconclusive entries below differ from those in the screen. Calls come from the whole dose curve; as a rule, active = well fitted inhibition curve with a large enough effect; inconclusive = small, poorly fitted or top-dose-only effect; inactive = no such curve, though single readings can be large or run the other way. Potencies of inconclusive entries are left out as doubtful fits.
# Biological target: Glucagon-like peptide 1 receptor (Homo sapiens) (UniProt P43220)
# Experiment: qHTS of GLP-1 Receptor Inverse Agonists (Inhibition Mode); note: nearly all actives have a fitted effect of over 55% in size
# Details: HEK293 GLP-1R CRE-luciferase, luminescence, 24 h, GLP-1R form is constitutively active; series mostly up to 38.3 µM
# How it was run: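 Using stably transfected HEK293 (constitutively active GLP-1R, cAMP-luciferase reporter), compounds were incubated 24 hr and luciferase measured by luminescence.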
# Potency is the fitted concentration of half-maximal effect; tags give direction and shape of the fitted curve.
# Chain of UniProt P43220 (P43220 whole entry, looked up): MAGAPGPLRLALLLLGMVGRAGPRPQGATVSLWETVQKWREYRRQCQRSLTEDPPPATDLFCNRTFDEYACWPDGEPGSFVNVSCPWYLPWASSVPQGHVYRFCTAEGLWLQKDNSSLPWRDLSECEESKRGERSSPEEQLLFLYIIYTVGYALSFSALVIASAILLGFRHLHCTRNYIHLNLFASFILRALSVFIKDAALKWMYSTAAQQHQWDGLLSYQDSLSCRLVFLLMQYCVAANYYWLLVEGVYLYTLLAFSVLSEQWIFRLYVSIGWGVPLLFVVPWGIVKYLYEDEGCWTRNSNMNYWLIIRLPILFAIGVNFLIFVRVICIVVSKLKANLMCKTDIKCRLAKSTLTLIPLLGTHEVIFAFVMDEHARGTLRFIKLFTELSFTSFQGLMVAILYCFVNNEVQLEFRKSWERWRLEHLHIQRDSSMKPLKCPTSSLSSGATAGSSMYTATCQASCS
row,Structure (SMILES),Potency
1,Cc1ccc(NC(=O)CN2CCSc3ccc(S(=O)(=O)N4CCCC4)cc32)cc1,"inconclusive [inhibitor, partial curve, poor fit]"
2,CCN(Cc1nc(-c2ccc(OC)cc2)oc1C)S(=O)(=O)c1ccc(C)cc1,"inconclusive [inhibitor, single point]"
3,Cc1cc(C)cc(NC(=S)NCc2cccn2C)c1,inactive
4,COc1ccc(N(C)S(=O)(=O)c2cccc(C(=O)NCC3CCCCC3)c2)cc1,"inconclusive [inhibitor, single point]"
5,CC1CCCC(C)N1C(=O)COc1ccc(F)cc1 (stereo not drawn),"inconclusive [inhibitor, single point]"
6,CCOC(=O)C1CCCN(C(=O)c2csc(-c3ccc4c(c3)CCO4)n2)C1 (stereo not drawn),"inconclusive [inhibitor, partial curve, poor fit]"
7,Fc1cccc(CO/N=C/c2c(-c3ccccc3)nc3ccc(Cl)cn23)c1,"inconclusive [inhibitor, partial curve, poor fit]"
8,COc1ccc(CCNC(=O)c2ccc3c(c2)N(Cc2ccc(Cl)cc2)C(=O)c2ccccc2S3)cc1OC,inactive
9,COc1ccc(N(CC(=O)Nc2cc(C)on2)S(=O)(=O)c2cc(C)ccc2C)cc1,"inconclusive [inhibitor, partial curve, poor fit]"
10,O=C(CC(c1ccco1)S(=O)(=O)c1ccccc1)c1ccccc1 (stereo not drawn),inactive
11,COc1cc(C)ccc1OCCOc1ccccc1Cl,"inconclusive [inhibitor, single point]"
12,Cc1cc(C)cc(NS(=O)(=O)c2ccc3[nH]cc(C(=O)N4CCc5ccccc54)c(=O)c3c2)c1,"inconclusive [inhibitor, single point]"
13,Cc1ccccc1Nc1c(-c2ccc(Br)o2)nc2ccc(Cl)cn12,"inconclusive [inhibitor, single point]"
14,CCCCn1cnc2sc(-c3ccccc3)cc2c1=O,"inconclusive [inhibitor, single point]"
15,COc1ccc(C(=O)N2CCN(c3ccc(C)cc3C)CC2)cc1OC,"inconclusive [inhibitor, single point]"
16,CC(=O)N(CCc1ccccc1C)Cc1cc2cc3c(cc2[nH]c1=O)OCO3,inactive
17,CC(C)CCNC(=O)Nc1ccc2c(c1)N(Cc1ccccc1)C(=O)c1ccccc1S2,"inconclusive [inhibitor, partial curve, poor fit]"
18,COc1ccc(C(=O)NC(=S)NNC(=O)c2ccc(NC(C)=O)cc2)cc1Br,inactive
19,Nc1nnc(N)c2ccccc12,inactive
20,CC(C)N(Cc1cn(C)nc1-c1cccc(Cl)c1)CC1CCC(=O)N1 (stereo not drawn),"inconclusive [inhibitor, single point]"
21,C#CC(CC)(CC)NC(=S)Nc1cccc(C(C)=O)c1,"inconclusive [inhibitor, single point]"

row,Structure (SMILES),Potency
1,COc1cccc(NC(=S)N(Cc2ccc(C)cc2)Cc2ccccn2)c1,"inconclusive [inhibitor, partial curve, poor fit]"
2,CCC(C)(C)NC(=O)c1cc([N+](=O)[O-])ccc1N1CCCCC1,"inconclusive [inhibitor, single point]"
3,CCn1c(SCC(=O)c2[nH]c(C)c(C(C)=O)c2C)nnc1-c1ccccc1,"inconclusive [inhibitor, full curve, poor fit]"
4,COCCN=C1Sc2nc3ccc(C)cc3cc2CN1Cc1ccco1,"inconclusive [inhibitor, partial curve, poor fit]"
5,CCOc1ccc(C(=O)NCC(=O)NC(C)CCc2ccccc2)cc1OCC (stereo not drawn),"inconclusive [inhibitor, partial curve, poor fit]"
6,NC(N)=NN=C(c1ccc(F)cc1)c1ccc(C(F)(F)F)cc1,active: 1.12 µM
7,Cc1ccc(NC(=O)c2cc(C)n(-c3cccc(C)c3)c2C)cc1,active: 11.2 µM
8,COc1ccc(NC(=S)NC23CC4CC(CC(C4)C2)C3)cc1OC,"inconclusive [inhibitor, single point]"
9,CC1(C(=O)Nc2ccc3c(c2)OCCO3)CCN1C(=O)c1ccccc1CCc1ccccc1 (stereo not drawn),"inconclusive [inhibitor, single point]"
10,C=CCn1c(SCc2c(C)noc2C)nc2cc(C(=O)O)ccc2c1=O,inactive
11,COc1ccc(NC(=O)c2ccccc2-c2ccc(C(F)(F)F)cc2)cc1S(=O)(=O)N1CCOCC1,"inconclusive [inhibitor, single point]"
12,Cc1cccc(OCc2nnc(SCC(=O)N3c4ccccc4CC3C)n2C)c1C (stereo not drawn),"inconclusive [inhibitor, partial curve, poor fit]"
13,COc1ccc(C(CNC(=O)CSc2ccc(Br)cc2)N2CCOCC2)cc1 (stereo not drawn),"inconclusive [inhibitor, single point]"
14,COc1ccccc1C=Cc1ccnc2ccccc12,"inconclusive [inhibitor, single point]"
15,Cc1cccc(N2CCN(S(=O)(=O)c3c(C(=O)N4CCCCC4)c(C)n(C)c3C)CC2)c1C,"inconclusive [inhibitor, single point]"
16,COc1ccc(/C=C2\C(=O)N(Cc3ccc(F)cc3)CC(=O)N2Cc2ccccc2)cc1,"inconclusive [inhibitor, single point]"
17,CCc1ccccc1N1C(=O)CN(Cc2cc(OC)c(OC)c(OC)c2)C1=S,"inconclusive [inhibitor, full curve, poor fit]"
18,CC1CCN(c2c(NCc3ccc(C(=O)N4c5ccccc5CC4C)cc3)c(=O)c2=O)CC1 (stereo not drawn),"inconclusive [inhibitor, partial curve, poor fit]"
19,Cc1ccc(-c2ccc(C(=O)Nc3ccccc3)o2)c2ccccc12,"inconclusive [inhibitor, partial curve, poor fit]"
20,CCOC(=O)C(=NCCCN(C)C)NNc1ccc(Br)cc1,active: 3.98 µM
21,Cc1cc(C)nc(SCc2ccc(C(=O)N/N=C/c3cccc(O)c3O)cc2)n1,inactive

row,Structure (SMILES),Potency
1,O=C(Nc1ccccc1Br)C(Cc1ccccc1)NS(=O)(=O)c1cccc2nsnc12 (stereo not drawn),"inconclusive [inhibitor, single point]"
2,CCN(CC)CCNC(=O)c1ccc2nc(CCc3ccccc3)oc2c1,"inconclusive [inhibitor, partial curve, poor fit]"
3,COC(=O)c1ccc(N=C2S/C(=C\c3cc(C)n(-c4cccnc4)c3C)C(=O)N2C)cc1,"inconclusive [inhibitor, single point]"
4,CC(=O)c1ccc(NC(=O)c2ccc(-c3ccc(Cl)cc3)o2)cc1,"inconclusive [inhibitor, single point]"
5,COc1ccc(CN(CC(O)COc2cccc3[nH]cc(C)c23)C(C)(C)C)cc1 (stereo not drawn),"inconclusive [inhibitor, single point]"
6,Oc1ccc(/C=N/NC(=S)N2CCOCC2)cc1,"inconclusive [inhibitor, full curve, poor fit]"
7,O=C(Nc1ccc(Cl)cc1)OCCn1nnnc1C(c1ccccc1)N1CCOCC1 (stereo not drawn),"inconclusive [inhibitor, partial curve, poor fit]"
8,Nc1cc(=O)nc(SCC(=O)Nc2ccc(F)cc2)n1CCc1ccccc1,inactive
9,CCS(=O)(=O)c1nc(S(=O)(=O)c2ccc(C)cc2)c(NCCCOC)s1,inactive
10,COc1ccc(CN(C(=O)c2nsc(Cl)c2Cl)C(C(=O)NC2CCCC2)c2ccc(OC)cc2)cc1 (stereo not drawn),"inconclusive [inhibitor, single point]"
11,CC(C)CNC(=O)C1C(=O)Nc2ccccc2C(=O)N1C1CCCCC1 (stereo not drawn),inactive
12,CCN(CC)CCNc1nc2nonc2nc1NCCN(CC)CC,"inconclusive [inhibitor, single point]"
13,C[C@H](c1ccccc1)N1C[C@H](COCc2ccccc2)Oc2cc(N3CC[C@H](O)C3)ccc2S1(=O)=O,active: 10 µM
14,COc1ccc(C2(CNC(=O)c3cccc([N+](=O)[O-])c3)CCCCC2)cc1OC,"inconclusive [inhibitor, single point]"
15,CC(C)CNC(=O)c1nn(Cc2ccccc2)c(=O)c2ccccc12,"inconclusive [inhibitor, partial curve, poor fit]"
16,CC(=O)Nc1ccc(/C(C)=N/Nc2nc(Nc3ccccc3)nc(N3CCOCC3)n2)cc1,"inconclusive [inhibitor, full curve, poor fit]"
17,CCCc1nnc(NC(=O)c2nc(S(=O)(=O)Cc3cccc(C)c3)ncc2Cl)s1,"inconclusive [inhibitor, single point]"
18,c1ccc(-n2ncc3c(N4CCCC4)ncnc32)cc1,"inconclusive [inhibitor, single point]"
19,CCc1ccc([C@@H]2CC=C(C(=O)O)[C@H](c3cccc(Cl)c3)N2S(=O)(=O)c2ccc(C)cc2)cc1,"inconclusive [inhibitor, partial curve]"
20,CCC(=O)c1ccc(OCC(=O)Nc2cccc(S(=O)(=O)N(C)c3ccccc3)c2)cc1,"inconclusive [inhibitor, single point]"
21,CC(CNC(=O)c1ccc(CSc2nc3ccncc3n2Cc2ccccc2)cc1)c1ccccc1 (stereo not drawn),"inconclusive [inhibitor, partial curve, poor fit]"
